From article PMC4336329 (PLoS ONE, 2015)
Hit rate of the full screen: of about 310,000 compounds, about 2,200 (0.71%) showed an effect of 50% or more. Effects have a minus sign here. Some of the results follow.

biological target: human ether-à-go-go-related gene (hERG) potassium channel (human, UniProt Q12809); test: primary screen, population patch clamp on CHO cells stably expressing hERG
Sequence (Q12809 whole entry, looked up): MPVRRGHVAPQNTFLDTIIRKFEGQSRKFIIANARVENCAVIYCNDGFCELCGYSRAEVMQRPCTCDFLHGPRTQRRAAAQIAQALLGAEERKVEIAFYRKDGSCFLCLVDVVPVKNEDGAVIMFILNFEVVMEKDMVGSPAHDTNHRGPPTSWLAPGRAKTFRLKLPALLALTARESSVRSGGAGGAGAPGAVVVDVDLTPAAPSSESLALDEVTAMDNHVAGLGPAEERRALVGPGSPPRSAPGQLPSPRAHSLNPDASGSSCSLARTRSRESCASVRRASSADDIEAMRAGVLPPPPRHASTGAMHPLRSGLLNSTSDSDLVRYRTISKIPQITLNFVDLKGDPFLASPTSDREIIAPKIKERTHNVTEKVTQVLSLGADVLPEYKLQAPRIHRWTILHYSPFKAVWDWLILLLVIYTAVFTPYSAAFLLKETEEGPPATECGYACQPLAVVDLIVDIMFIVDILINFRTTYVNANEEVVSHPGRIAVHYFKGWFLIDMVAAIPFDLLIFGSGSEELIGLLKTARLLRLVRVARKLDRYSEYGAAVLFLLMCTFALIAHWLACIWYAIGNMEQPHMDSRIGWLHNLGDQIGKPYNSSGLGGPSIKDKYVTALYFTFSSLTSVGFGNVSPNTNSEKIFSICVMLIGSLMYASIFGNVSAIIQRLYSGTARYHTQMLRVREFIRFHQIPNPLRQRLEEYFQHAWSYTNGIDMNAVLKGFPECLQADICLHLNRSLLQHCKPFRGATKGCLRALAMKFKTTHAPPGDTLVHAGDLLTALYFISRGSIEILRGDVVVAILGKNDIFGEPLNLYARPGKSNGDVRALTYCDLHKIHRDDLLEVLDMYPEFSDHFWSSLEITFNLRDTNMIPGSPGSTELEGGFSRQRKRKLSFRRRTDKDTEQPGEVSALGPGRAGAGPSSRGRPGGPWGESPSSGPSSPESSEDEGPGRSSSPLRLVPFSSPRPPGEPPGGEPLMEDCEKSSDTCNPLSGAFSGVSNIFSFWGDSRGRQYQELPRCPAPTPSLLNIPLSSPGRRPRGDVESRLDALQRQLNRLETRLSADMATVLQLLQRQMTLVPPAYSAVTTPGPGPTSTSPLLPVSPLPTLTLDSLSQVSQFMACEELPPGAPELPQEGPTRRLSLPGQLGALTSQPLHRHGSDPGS

Structure (SMILES)	hERG current change (%, negative = inhibition) at 1uM
Cc1c(C(=O)N2CCCCC2)c(S(=O)(=O)NCc2ccccc2Cl)c(C)n1C	11%
NNc1nc2c(-c3cccc(C(F)(F)F)c3)nnn2c2ccccc12	15.4%
COc1cc2c(cc1N/C=C(\C#N)c1nc(-c3ccc(F)cc3)cs1)oc1ccccc12	-15.6%
CCn1cc(S(=O)(=O)NCc2ccc(OC)cc2)cn1	5.26%
COc1ccc(S(=O)(=O)N(C)c2ccc(C(=O)Nc3cccnc3)cc2)cc1	9.96%
CCCn1c(=O)c2c(nc3n2CCCN3CCc2ccc(OC)c(OC)c2)n(C)c1=O	0.562%
Cc1cc(N2C(=O)C=CC2=O)c([N+](=O)[O-])cc1C	-3.92%
O=C(N/N=C1\CCCc2ccccc21)c1cccc([N+](=O)[O-])c1	-1.15%
O=C(N/N=C/c1ccc2nccnc2c1)c1cccc([N+](=O)[O-])c1	8.28%
COc1ccc(OC)c(CNC(=O)C2CCN(S(=O)(=O)N3CCCCC3)CC2)c1	5.55%
O=C(NCC1CCCO1)c1ccc2c(=O)n(CC3CCCO3)c(=S)[nH]c2c1 (centres unmarked)	12.2%
Cc1cc(=O)[nH]c(N/N=C/C2=C(N3CCOCC3)C(=C\c3ccc(Cl)cc3)/CC2)n1	9.83%
COc1ccc(OC)c(-n2c(-c3cc(-c4ccccc4)n[nH]3)n[nH]c2=S)c1	13.9%
COc1ccc(S(=O)(=O)NCCS(=O)(=O)N2CCN(c3ccccc3)CC2)cc1	1.73%
CCn1c(CNC(=O)c2ccccc2F)nnc1SCC(=O)NC1CCCCC1	-6.46%
CCOC(=O)CSc1nc2ccccc2c(=O)n1CCC(=O)NCCc1ccc(OC)c(OC)c1	-1.71%
COc1ccc(CCNC(=O)CSc2nc3ccccc3c3nc(CCN4CCCCC4)nn23)cc1OC	4.4%
Fc1cccc(COc2ccccc2CNc2ccccc2)c1	11.2%
NC1=NC(=O)S/C1=C\c1ccc(F)cc1	13.6%
CSc1nnc(-c2ccc(S(=O)(=O)N3CCCCC3)cc2)o1	14.4%
Cc1cccc(C)c1NC(=O)C1C2C=CC(C2)C1C(=O)NCc1ccccn1 (centres unmarked)	3.15%
Cn1c(Cn2c(=O)sc3ccccc32)nnc1SCC(=O)Nc1ccc(F)cc1	11.6%
O=C(CC1C(=O)NCCN1C(=O)Nc1ccccc1)Nc1cc(Cl)ccc1Cl (centres unmarked)	6.94%
